# Data: PMC6919601, “Identification of Plasmodium dipeptidyl aminopeptidase allosteric inhibitors by high throughput screening” (PLoS ONE, 2019)
# The whole screen tested about 110,000 compounds, of which about 230 (0.21%) showed an effect of 50% or more. The list shows a part of the results.
# Target: DPAP1 (Plasmodium falciparum, UniProt Q8IIJ9)
# Test: primary screen, percent inhibition; read by cleavage of a fluorogenic dipeptide substrate; higher = more effect of the substance
# Parameters: species or system P. falciparum D10 trophozoite lysates; single well
# 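Also: 30 min substrate incubation versus DMSO and 10 µM JCP410 controls.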
# Sequence of DPAP1 (Q8IIJ9 whole entry, looked up): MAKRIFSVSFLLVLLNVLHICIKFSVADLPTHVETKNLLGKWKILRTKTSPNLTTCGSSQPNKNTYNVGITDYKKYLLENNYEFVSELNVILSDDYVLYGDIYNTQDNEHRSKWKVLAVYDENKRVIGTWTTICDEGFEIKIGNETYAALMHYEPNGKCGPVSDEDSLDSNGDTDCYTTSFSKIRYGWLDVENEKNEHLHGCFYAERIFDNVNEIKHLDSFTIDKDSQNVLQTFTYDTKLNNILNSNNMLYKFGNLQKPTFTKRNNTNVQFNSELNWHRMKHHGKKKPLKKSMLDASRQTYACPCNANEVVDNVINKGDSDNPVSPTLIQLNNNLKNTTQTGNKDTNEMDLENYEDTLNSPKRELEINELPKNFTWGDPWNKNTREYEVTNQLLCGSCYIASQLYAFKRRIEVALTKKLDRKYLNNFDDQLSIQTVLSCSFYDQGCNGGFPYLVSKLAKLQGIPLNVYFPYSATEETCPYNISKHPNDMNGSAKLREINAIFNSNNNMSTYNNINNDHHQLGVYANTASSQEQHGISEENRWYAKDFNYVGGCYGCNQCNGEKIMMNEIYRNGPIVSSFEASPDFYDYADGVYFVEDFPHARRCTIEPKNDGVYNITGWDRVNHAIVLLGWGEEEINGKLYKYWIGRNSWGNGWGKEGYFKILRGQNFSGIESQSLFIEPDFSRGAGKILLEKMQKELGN
row,SMILES,% Inhibition @ 10 uM [%]
1,COc1ccc(C(=O)N2c3ccccc3C=CC2C#N)cc1 (stereo not drawn),0.408
2,Cc1[nH]c2ccccc2c1CCC(=O)NC(C)C,-6.25
3,COc1cc(OC)c(CN2CC(C)CC(C)C2)cc1Br (stereo not drawn),-3.6
4,Cc1cccc(C)c1NC(=O)CN1C(=O)S/C(=C/c2cccs2)C1=O,-10.8
5,COc1ccc2nc3c(O)n(Cc4ccccc4Cl)cnc-3c2c1,-3.52
6,CCOc1cc2c(cc1/C=C1/NC(=O)N(CC(=O)Nc3ccccc3)C1=O)OCO2,7.34
7,CC(C)C[C@H](NC(=O)c1ccc(-c2cccc(C(C)C)c2)cc1)C(=O)NCC#N,-1.41
8,CCOC(=O)c1c(S(=O)(=O)NCCN2CCc3ccccc3C2)c(C)n(C)c1C,-1.37
9,C=Cc1ccc(Cn2c(C(=O)O)c(CNCc3ccc(OC(C)C)cc3)c3ccccc32)cc1,2.27
10,N#Cc1ccc(CSc2nnc(CN3CCOCC3)n2-c2ccccc2)cc1,2.72
11,O=[N+]([O-])c1ccc(CN2CCN(c3cccc(C(F)(F)F)c3)CC2)s1,-0.127
12,CCN(CCC(C)c1ccccc1)CCN(C)C (stereo not drawn),-4.75
13,CC1(C)CC(=O)C2=C(C1)N(c1nc[nH]n1)C(N)=C(C#N)C2c1ccc(F)cc1 (stereo not drawn),-4.6
14,Cc1ccc(NC(=O)c2c(Cl)c(C)nn2C)cc1C,-1.44
15,Cc1ncsc1CCSc1nc2ccccc2c(=O)n1C,-1.98
16,COc1ccc(OCC(O)CN2CCN(c3ccccc3F)CC2)cc1 (stereo not drawn),3.43
17,O=C(NC1C2CC3CC1CC(O)(C3)C2)c1ccc(Cl)cc1 (stereo not drawn),-4.75
18,O=C(NCCCc1ccccc1)C1CCC(CNS(=O)(=O)c2cccc3nsnc23)CC1 (stereo not drawn),-2.25
19,COc1cccc(/C=C2\N=C(C3CCCCC3)OC2=O)c1OC,-0.597
20,CCCN1CCC(N(C)CCN(CC)CC)CC1,-1.56
21,Cn1c2ccccc2c2cnn(CC(=O)NCc3cccnc3)c(=O)c21,-3.67

row,SMILES,% Inhibition @ 10 uM [%]
1,Cc1cccc(OCc2nc(-c3cc(C)nc4ccccc34)no2)c1,1.32
2,CCOc1ccc(C(=O)Nc2cccc(C(=O)O)c2C)cc1Cl,-0.123
3,CCN1C2=C(C(=O)CCC2)C(c2cccc(OC)c2)C2=C1CCCC2=O,-1.6
4,Nc1nc2c3cc4c(nc3sc2c2ccccc12)CCC4,-0.171
5,C#CCOC(=O)CCCC(=O)Nc1cccc2ccccc12,-1.77
6,Cc1ccc(C)c(Cn2c(CN3CCN(C(=O)c4ccco4)CC3)nc3c2c(=O)n(C)c(=O)n3C)c1,4.51
7,O=C(CSc1nc[nH]n1)Nc1nnc(-c2ccccc2)s1,-3.41
8,COc1ccc(-c2cc(O)c(C(=O)c3ccc(C)cc3)nn2)cc1,-0.403
9,CCOc1cc(C(Nc2cc(C)ccn2)c2ccc3cccnc3c2O)ccc1O (stereo not drawn),-4.51
10,FC(F)(F)c1cccc(N2CCN(Cc3cccs3)CC2)c1,-2.08
11,Cc1cc(C2C(=O)c3ccccc3C2=O)nc2ccccc12,0.627
12,O=C(CCC1CCCC1)NC1CCC(NC(=O)CCC2CCCC2)CC1 (stereo not drawn),2.22
13,COc1ccc2nc3sc(C(=O)NCCCN4CCCC4=O)cc3cc2c1,84.6
14,CCCC(NCC(C)C)C(=O)Nc1c(C)cc(C)cc1C (stereo not drawn),-0.999
15,COc1ccc(C2(C)CC(=O)N(C)C2=O)cc1 (stereo not drawn),4.08
16,CCOC(=O)C1=C(N)OC2=C(C(=O)CC(C)(C)C2)C1c1ccc(Cl)c(Cl)c1 (stereo not drawn),13
17,COc1cc(CNCCSc2nnnn2C)cc(Br)c1OCc1ccccc1F,0.00706
18,COC(=O)CC[S+](O)CCC(=O)OC,-0.0372
19,O=C(O)c1cccnc1SCc1ccccc1,-0.519
20,O=C(NC1(C(F)(F)F)C(=O)Nc2c1c(=O)[nH]c(=O)n2-c1ccccc1)c1ccncc1 (stereo not drawn),1.93
21,Cc1nc2cc(NC(=O)CNS(=O)(=O)c3ccc(C(C)(C)C)cc3)ccc2s1,-3.43

row,SMILES,% Inhibition @ 10 uM [%]
1,CC(C)(C)N1C(=O)N=C(c2ccccc2)c2ccccc2S1=O (stereo not drawn),-3.45
2,O=C(CCc1nnc2ccc(N3CCCC3)nn12)N1CC=C(c2ccccc2)CC1,-0.544
3,CC(C)C1C(C#N)=C(N)Oc2[nH]nc(-c3ccc4ccccc4c3)c21 (stereo not drawn),11.1
4,O=C(Cc1ccccc1)Nc1c(-c2ccc(F)cc2)nc2ccccn12,-2.83
5,Cc1ccsc1CCNC(=O)c1cc(-c2ccccc2)c(N2CCOCC2)s1,0.708
6,COC(=O)c1ccc(CSc2nc3cccnc3n2Cc2ccccc2)cc1,-3.34
7,NC(=O)COc1ccc(/C=C2/SC(=O)N(CC(=O)N3CCN(c4ccccc4)CC3)C2=O)cc1,0.161
8,Cc1ccc(Sc2ccc(/C=C3/C(=N)N4C(=NC3=O)SN=C4S(C)(=O)=O)o2)cc1,1.85
9,COc1ccc(C2=NOC(C(=O)N(C)Cc3ccccc3)C2)cc1 (stereo not drawn),1.62
10,CCOC(=O)N1CCN(c2nc(-c3ccc(C)cc3)cc(C(F)F)n2)CC1,2.64
11,N#CCNC(=O)C(Cc1c(F)cccc1F)NC(=O)c1ccc(Oc2ccccc2)cc1 (stereo not drawn),1.61
12,CCOc1ccccc1C1C(C#N)=C(N)Oc2c1c(C)nn2-c1ccccc1 (stereo not drawn),-4.4
13,Cc1ccc(-c2nc(CSCC(=O)NC(C)CCc3ccccc3)c(C)o2)cc1 (stereo not drawn),2.37
14,O=C(O)CNC(=O)c1ccc(C23CC4CC(CC(C4)C2)C3)cc1,-3.62
15,CC(C)C[C@H](NC(=O)c1ccc(-c2ccc(O)cc2)cc1)C(=O)NCC#N,15.9
16,CCOC(=O)Nc1ccc(-c2cccc(C(CS(=O)(=O)Cc3ccccc3)C(=O)NCC#N)c2)cc1 (stereo not drawn),-7.21
17,C=C(C)CSc1nc2nc(C)cc(C)n2n1,-2.91
18,Cc1ccc(S(=O)(=O)N(CC(=O)NC(C)(C)C)c2cc(C)ccc2C)cc1,-7.28
19,OCCC12CC3CC(C1)CC(CCO)(C3)C2,-2.59
20,COc1ccc(Cn2c(=O)c3cccnc3n(Cc3cc(=O)n4cc(Cl)ccc4n3)c2=O)cc1,1.72
21,CCCCC(=O)Nc1ccc(C2C(=O)c3ccccc3C2=O)cc1,-2.32
